Here are results for 88 sequences from the supplement of paper PMC11417369.

± gives the standard deviation of the averaged measurements. The list shows a part of the results.

This assay has as its system PfAP2-LT AP2 domain (GST-tagged). Briefly: gcPBM binding intensity (ln(normalized median fluorescence intensity)); higher = stronger DNA binding. The method in brief: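 GST-fused DNA-binding domains of P. falciparum, expressed in E. coli, were applied at about 25 μg on average for 1 h to an Agilent 4 × 180k array of primer-extended double-stranded 36-bp intergenic genomic probes and negative controls. Binding intensity is the highest Masliner-normalised natural-log median intensity across replicate spots of either probe orientation, measured with Alexa488 anti-GST antibody and a 488 nm scan.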
As for “TTTCTTAAAATATAAAGTACTAAAATGAAAATATAT [XGTACX_site2173]”, the “gcPBM binding intensity (ln)” value came out at 8.4 ± 0.41.
As for “AAATAAAGAAATATATGTACATATATATATATATAT [XGTACX_site5131]”, the figure is 9.64 ± 0.25; as for “TTTATTCTCCACACCCGTACACATTTTTTTTGCATA [XGTACX_site5615]”, 9.04 ± 0.52.
Under “AAAAAAAAAAAAAACACACACACACGCAGATATATA [CACACA_site6672]” stands 9.96 ± 0.27.
On to “CATAATATTTGTGAAAGTACTTATTTTACAATAGGG [XGTACX_site5004]”, for which the “gcPBM binding intensity (ln)” value amounted to 8.59 ± 0.38.
Under “ATTATAGACAACTCTTTTTCTAAACTATTTTATTTT [CACACA_negctrl_site1754]” stands 8.89 ± 0.61.
As for “CTTCTTTTGTGATAAAGTACAAATATTTTGAAATAT [XGTACX_site1156]”, the figure is 8.29 ± 0.4.
With “ATAAATAAATAAATAAATATATATATGAAATAATGT [TGCATGCA_negctrl_site12]”, the “gcPBM binding intensity (ln)” value stood at 8.86 ± 0.35.
As to “TTTTCTATAAGATTTGCACACAACTTATTCTATTAA [CACACA_site3752]”, the “gcPBM binding intensity (ln)” value was 9.2 ± 0.37.
“AAAAAATATAAAACGAGTACATATATAATAAGCAAA [XGTACX_site1360]”: the “gcPBM binding intensity (ln)” value was determined as 9.03 ± 0.47.
Under “ATTTCTTTTACATTTACATGCAATGCTCTATAGATA [TGCATGCA_site62]” stands 8.98 ± 0.45; under “AAAGAATTTGCATATACACACAAAAAAATAAATACA [CACACA_site4373]”, 9.12 ± 0.47.
As for “ATTTTTTTTATGTATTATGCTTTTATATCCTTCATA [CACACA_negctrl_site1244]”, the figure is 8.93 ± 0.49.
With “AATATAATATAATGCACACATAAAAAAAAAAAAATC [CACACA_site1303]”, the “gcPBM binding intensity (ln)” value is 9.21 ± 0.41.
For the sequence “AATGCACTATTTAAAAGTACACATAAGAAAAGCATA [XGTACX_site1739]”, the “gcPBM binding intensity (ln)” value came out at 8.88 ± 0.43.
As for “GCTAAACAATAGTTTGCACACAATTTAAATATATAT [CACACA_site193]”, the figure is 9.04 ± 0.35.
As for “AGTATAAATATATTATGTACATATATATTATACTTA [XGTACX_site2623]”, the figure is 8.65 ± 0.35; as for “TTATATACATTAAATGAACACACATAAATAAATTAC [CACACA_site8927]”, 8.88 ± 0.38; as for “ATATATATATACATATGTACATATATATTTATACAT [XGTACX_site2463]”, 9.1 ± 0.3.
Take “TACACAGACGGACACACACACACACTAGAAAAAAAA [CACACA_site4435]”: the “gcPBM binding intensity (ln)” value was 10.1 ± 0.59.
As to “TTGTTAATAAAAATATTGGAAAGTTTATAAAATTTT [CACACA_negctrl_site1487]”, the “gcPBM binding intensity (ln)” value was 8.13 ± 0.44.
Under “TTATTTTCTTTTTCTTGTACACACATAATATGGATG [XGTACX_site1481]” stands 9.17 ± 0.54; under “TATTCCAAAAATGTGTGTACATAAATACAATATTAT [XGTACX_site2653]”, 9.04 ± 0.35.
As for “AAAAAGAAGAATAATACACACAAATTATTTTATATA [CACACA_site1919]”, the figure is 8.89 ± 0.57; as for “TATAATAAATGGACGGTGCGACATGACCATATGTGT [GTGCAC_site9476]”, 9.13 ± 0.36; as for “CTAAAAGAACATGTGTGTACTTATGTTCTCTTTTTT [XGTACX_site5983]”, 8.85 ± 0.44.
As for “GACACCCATAAATATACACACGCACAACACAAAATA [CACACA_site8944]”, the figure is 9.46 ± 0.38.
Regarding “CTTACCAAAAAACACACACACACAAAATATATAAAT [CACACA_site1870]”, the “gcPBM binding intensity (ln)” value was 10.1 ± 0.24.
As for “TTATTTTTTAGTAGTACACACTTTTTGTACCTTTTA [CACACA_site4503]”, the figure is 8.93 ± 0.49; as for “TGTAGATTTTGTAACACACACATATAAATACAGATA [CACACA_site5343]”, 9.24 ± 0.34; as for “TAAGGGATATGTATATGTACATACAAATATATATAA [XGTACX_site2892]”, 8.83 ± 0.44.
Under “AAATGTAATAAATATACACACACAAATATATATATA [CACACA_site8754]” stands 9.58 ± 0.24; under “TTTGCTTCGATATATTCACACATTTTTTTTCTTATT [CACACA_site4499]”, 8.91 ± 0.46; under “AATTTCATTTTTAGAAGTACATTTATATTAAAAATC [XGTACX_site2888]”, 8.11 ± 0.39.
Under “TATATATATATATATATATATATATATATATATATT [CACACA_negctrl_site1440]” stands 9.45 ± 0.014; under “CATTGACCATTAATTTGTACACAAGGGGAAATGAGG [XGTACX_site1756]”, 8.79 ± 0.43; under “TCTTTCTGCTCTTATACACACAAATAAAGATTTTTT [CACACA_site2700]”, 8.79 ± 0.5.
Regarding “ATGAAATTTTCATATTGTACTATTAAAAATATATTT [XGTACX_site1989]”, the “gcPBM binding intensity (ln)” value came to 8.35 ± 0.42.
As for “TATAATCCATAAGAAGCACACACATATATATATATT [CACACA_site8394]”, the figure is 9.41 ± 0.3; as for “AATAAATATTAAATGACAAAAAAAAAAAAAAAAGGG [XGTACX_negctrl_site15]”, 8.76 ± 0.64; as for “TTAAGATGCATAAATACATGCAAAGTAAATAATTCT [TGCATGCA_site517]”, 8.97 ± 0.41.
“TTAGCAGGACGTTTGGTGCACGTACTGTTTTTCTTT [GTGCAC_site9856]”: the “gcPBM binding intensity (ln)” value was 8.81 ± 0.39.
Under “ATTATAAGAATTAAAAGAAACAAAATTTTAATTATA [CACACA_negctrl_site610]” stands 8.3 ± 0.46.
For “TAGCCAAAAGGATATGCACACACACCCACATATATA [CACACA_site8684]”, the “gcPBM binding intensity (ln)” value worked out at 9.71 ± 0.29.
As for “TAAGATCCTTAAAACGCATGCAGTATTTTTATTTCT [TGCATGCA_site532]”, the figure is 8.73 ± 0.38.
With “CATATAATTATTTTCACACATATAACTACATCTATA [CACACA_site5915]”, the “gcPBM binding intensity (ln)” value was determined as 8.82 ± 0.43.
For “ATATAAATAAAAAAAAGTACATAATATATAAAAATA [XGTACX_site3065]”, the “gcPBM binding intensity (ln)” value was 8.8 ± 0.59.
Under “CTTTTACGTTTAGGATGTACATTTAAAAAAAAAGAA [XGTACX_site8032]” stands 8.34 ± 0.48; under “AAAAAACTTTTAAGCACACACATAGATAATATAGAT [CACACA_site6835]”, 9.27 ± 0.47.
Turning to “TTCCCTTTTGTAAAATGTACATATATATTTAAACAA [XGTACX_site3263]”, the “gcPBM binding intensity (ln)” value stood at 8.38 ± 0.41.
As for “TTTTTATTAAAATGTATTTTAGGAAAAAACAAAAAA [XGTACX_negctrl_site437]”, the figure is 8.04 ± 0.52; as for “TAAGTTCCCTTTGAATGTACATATAATGAAAAGAAA [XGTACX_site826]”, 8.52 ± 0.42.
As for “AATATTAACAATCGCACACATATTATTTTTCCAAAA [CACACA_site4982]”, the figure is 9.02 ± 0.45; as for “TGAAATGGAAACAACTGTACAAAATAAATATGATAT [XGTACX_site1311]”, 9.02 ± 0.51; as for “ATATAAATATAGCATACACACAAAAAAATAAAATAA [CACACA_site2333]”, 9.06 ± 0.54.
Under “CAACATTTGAAACACACACACATACAAACAAACAAA [CACACA_site3306]” stands 9.85 ± 0.47.
With “TTTTTTTTTTTTGTCACACATATTTGTATTAATCAT [CACACA_site5235]”, the “gcPBM binding intensity (ln)” value was 8.79 ± 0.59.
Under “AAATGAAATAAATGTAGTACACATATACAATATATA [XGTACX_site6951]” stands 8.93 ± 0.45; under “TGTATATCATATATTTGTACTCAATTAATATAAACA [XGTACX_site3970]”, 8.48 ± 0.35; under “TATTTTTATACAATTTAACACGGGTTATAAAATGTA [CACACA_negctrl_site566]”, 8.49 ± 0.34.
Under “TATGGAAGAAAATATACACACAAAAAAAAAAAATGT [CACACA_site1486]” stands 9.24 ± 0.49; under “AATTTATTATTTGTATGTACTCATATGATTCACTTA [XGTACX_site2797]”, 8.89 ± 0.44; under ATACTTTTATTTTTGGTGCATATATCATGTAGACGT, 8.96 ± 0.37.
As for “TATTAATTTTTAAACATAATTTTTCGTATAATATAT [CACACA_negctrl_site762]”, the figure is 8.33 ± 0.37; as for “GAGATAAAATAAAACACACACATATATTTATATAAC [CACACA_site7098]”, 9.43 ± 0.43; as for “TTTACTTTCTTATTTTCACACATTTAAAAAAAAATT [CACACA_site5949]”, 8.36 ± 0.47.
In the case of “ACATCTAATTTGTATACACACAATAATAAATGGTGA [CACACA_site824]”, the “gcPBM binding intensity (ln)” value stood at 8.87 ± 0.4.
Under “TTGTATATATGACTTTTTTATATTTCAATTTTGTGC [CACACA_negctrl_site296]” stands 8.71 ± 0.49; under “TATATATATTTATAATGTACATATTTTTTTTTATTT [XGTACX_site4761]”, 8.71 ± 0.49; under “AAAAAAAATTAGGAAACATGCATGTCCCGATAAATA [TGCATGCA_site149]”, 8.89 ± 0.36.
Consider “AGATATATTATTAGGTGTACTATAAAATAAATTCAC [XGTACX_site221]”, for which the “gcPBM binding intensity (ln)” value amounted to 8.63 ± 0.38.
As for “CGAACAAACAAATAAACACACAAAAAAAGATATATA [CACACA_site6944]”, the figure is 9.1 ± 0.57; as for “AAAATCAAGTAGTATAAAGTAAGTATCATAAAAATA [CACACA_negctrl_site1554]”, 8.79 ± 0.5; as for ATAATAAAATGGAGAGTGCATACATGTTTATTTTAT, 8.9 ± 0.51.
Under “GTACACTAATTATGTGCACACAAATTAAAGGTCTAC [CACACA_site146]” stands 9.72 ± 0.3; under “TGTAGTTTGTCCCATGCATGTTCCATTAAAATATAT [TGCATGCA_site854]”, 9.03 ± 0.35; under “CAATCAAAGAAACACACACACACCTAAACATAAAAG [CACACA_site2756]”, 10.2 ± 0.33.
Regarding “TTAACGTAAAATATAGTGCATAGTATCATATTGATA [GTGCAC_site9527]”, the “gcPBM binding intensity (ln)” value turned out to be 8.82 ± 0.45.
Take “AATGTATATATGTAATGTACATATATAATGTATATA [XGTACX_site6510]”: the “gcPBM binding intensity (ln)” value is 8.99 ± 0.44.
As for “TATATAAACCCGTACACACACATATATGTATATATA [CACACA_site3507]”, the “gcPBM binding intensity (ln)” value was 9.5 ± 0.3.
Turning to “TTACTCATGAAAGATACACACATTCATTATATATAT [CACACA_site3252]”, the “gcPBM binding intensity (ln)” value worked out at 8.96 ± 0.4.
As for “TACTTCTACAAGAGAAGTACAATATTTTTTATATTA [XGTACX_site8351]”, the figure is 8.24 ± 0.43.
Under “AATAAAAATTTACTTTGTACACATATTAAATTCAAT [XGTACX_site1957]” stands 8.56 ± 0.46.
As for “AGACATAAGATAATTACACACAATACATCCCTATAT [CACACA_site2227]”, the figure is 9.24 ± 0.38.
As for “AAATTTACAATACATTGTACATATTAATAATATTCC [XGTACX_site3646]”, the “gcPBM binding intensity (ln)” value worked out at 8.69 ± 0.49.
As for “GTGTGTTGTATATACTGTACATACTTTATATATAGT [XGTACX_site1876]”, the figure is 9.26 ± 0.46; as for “TATAACAAGTAATGTTGTACATTGTATTATGTAATA [XGTACX_site6372]”, 8.63 ± 0.46; as for “AATGTAAAATATATGTGTACATATGTTTATATATAT [XGTACX_site2216]”, 8.84 ± 0.41.
